# Data from the supplement of paper PMC10369915.
# The list shows a part of the results. No stated cut-off is given here; in the data, active = 3.2 or more and inactive = the rest. Most of these values are background signal.
# How the values were obtained:
# Test in all cases: enrichment score (SH2-bound / input frequency) (ratio); bacterial display of known human phosphotyrosine sites (pTyr-Var adds point mutants) read by sequencing; higher = stronger binding; tyrosines were phosphorylated by kinases first
# Conditions in all cases: peptide library: pTyr-Var
# SHP2 C-SH2 domain E139D = biological target: SHP2 C-SH2 domain E139D
# [1] = biological target: SHP2 C-SH2 domain wild-type
# SHP2 N-SH2 domain L43F = biological target: SHP2 N-SH2 domain L43F
# SHP2 N-SH2 domain T42A = biological target: SHP2 N-SH2 domain T42A
# SHP2 N-SH2 domain T52S = biological target: SHP2 N-SH2 domain T52S
# [2] = biological target: SHP2 N-SH2 domain wild-type
# 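Further: displayed peptides selected on beads carrying the immobilized SH2 domain, with library peptides lacking any tyrosine serving as negative controls.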
Binder,enrichment score (SHP2 C-SH2 domain E139D),enrichment score [1],enrichment score (SHP2 N-SH2 domain L43F),enrichment score (SHP2 N-SH2 domain T42A),enrichment score (SHP2 N-SH2 domain T52S),enrichment score [2]
TKAEKYVNKAK [PLCG1_Y991],inactive: 0.828,inactive: 0.751,inactive: 0.911,inactive: 0.838,inactive: 1,inactive: 0.85
TTKAKYKTPTY [PLD2_Y573],inactive: 0.836,inactive: 0.747,inactive: 0.621,inactive: 0.66,inactive: 0.606,inactive: 0.835
PVDVAYRHGFF [PLEC_Y2967_R2969H_YF],inactive: 0.801,inactive: 0.491,inactive: 0.73,inactive: 0.571,inactive: 0.86,inactive: 0.924
PVDVAYRRGFF [PLEC_Y2967_YF],inactive: 0.401,inactive: 0.373,inactive: 0.683,inactive: 0.299,inactive: 0.405,inactive: 0.333
DHTVNYVLKCR [PLEKHG4_Y1068_R1064H],inactive: 0.742,inactive: 0.906,inactive: 0.641,inactive: 0.721,inactive: 0.539,inactive: 0.815
DGTESYLTVSS [PLK1_Y462],inactive: 0.645,inactive: 0.552,inactive: 0.531,inactive: 0.531,inactive: 0.495,inactive: 0.709
ADARMYGVLLW [PLP1_Y207_P211L],inactive: 0.539,inactive: 0.832,inactive: 0.558,inactive: 0.596,inactive: 0.475,inactive: 0.759
KPIETYFSKNF [PLP1_Y50_L46P_YF],inactive: 0.804,inactive: 0.737,inactive: 0.628,inactive: 0.678,inactive: 0.872,inactive: 0.827
KRIETYFSKNY [PLP1_Y50_L46R],inactive: 0.57,inactive: 0.562,inactive: 0.616,inactive: 0.404,inactive: 0.525,inactive: 0.67
KLIETCFSKNY [PLP1_Y50_Y50C],inactive: 0.886,inactive: 1.08,inactive: 1.08,inactive: 0.749,inactive: 0.793,inactive: 1.39
EHIEFYELDKK [PMM2_Y145_R141H],inactive: 0.706,inactive: 0.375,inactive: 0.331,inactive: 0.428,inactive: 0.621,inactive: 0.425
SAAAIYMVRHP [PMP22_Y117_T118M],inactive: 1.18,inactive: 1.19,inactive: 1.21,inactive: 1.07,inactive: 1.28,inactive: 1.38
LSDVIYVILRK [PMP22_Y153_G150D],inactive: 0.676,inactive: 0.7,inactive: 0.498,inactive: 0.667,inactive: 0.512,inactive: 0.309
LSGVIYVILWK [PMP22_Y153_R157W],inactive: 1.03,inactive: 0.978,inactive: 1.25,inactive: 1.18,inactive: 1.35,inactive: 0.844
EELLRYAIVTP [POC5_Y37_H36R],inactive: 2.27,active: 4.43,active: 4.42,active: 4.29,active: 5.17,inactive: 1.68
KVALLYKPYFY [POLE_Y100_P99L],inactive: 2.96,active: 3.27,active: 3.45,active: 3.28,inactive: 2.85,active: 3.48
KVALPYKPFFF [POLE_Y100_YF],inactive: 1.53,inactive: 1.51,inactive: 1.36,inactive: 1.29,inactive: 1.6,inactive: 1.42
GNYSGYDDAWD [POLR1C_Y36],inactive: 0.612,inactive: 0.56,inactive: 0.7,inactive: 0.645,inactive: 0.564,inactive: 0.572
DEDYLCREELA [POR_Y575_Y575C],inactive: 0.679,inactive: 0.965,inactive: 0.57,inactive: 0.63,inactive: 0.766,inactive: 0.943

Binder,enrichment score (SHP2 C-SH2 domain E139D),enrichment score [1],enrichment score (SHP2 N-SH2 domain L43F),enrichment score (SHP2 N-SH2 domain T42A),enrichment score (SHP2 N-SH2 domain T52S),enrichment score [2]
NVTGHYISPFH [PPA2_Y59],inactive: 1.24,inactive: 0.895,active: 9.62,active: 5.58,active: 10.4,active: 4.74
RRMLQYLTVND [PPFIBP2_Y663],inactive: 0.574,inactive: 0.457,inactive: 0.833,inactive: 0.823,inactive: 0.852,inactive: 0.665
VVEYGYEFFAK [PPP1CB_Y254_D252Y],inactive: 1.4,inactive: 1.66,inactive: 1.37,inactive: 1.48,inactive: 1.17,inactive: 1.44
VVEFGYEFFAK [PPP1CB_Y254_D252Y_YF],inactive: 1.58,inactive: 1.04,inactive: 1.54,inactive: 1.42,inactive: 1.25,inactive: 1.09
KCCCIYEKPRS [PPP1R11_Y64_A69S],inactive: 0.93,inactive: 1.09,inactive: 0.935,inactive: 0.759,inactive: 0.982,inactive: 1.17
LFMGDYVDRGY [PPP2CA_Y86],inactive: 1.72,inactive: 1.51,inactive: 1.42,inactive: 1.15,inactive: 1.43,inactive: 1.59
LFMGDYVDRGF [PPP2CA_Y86_YF],inactive: 1.45,inactive: 1.39,inactive: 1.11,inactive: 1.43,inactive: 1.11,inactive: 1.22
LNAGAYSKVVE [PPT1_Y172_Q177E],inactive: 0.763,inactive: 0.901,inactive: 0.833,inactive: 0.602,inactive: 0.647,inactive: 0.608
DAPVVYLGSFG [PRAG1_Y132_R137G],inactive: 0.773,inactive: 1.99,inactive: 0.896,inactive: 2.65,inactive: 0.858,inactive: 0.963
ETEMLYGSAPR [PRC1_Y464],inactive: 0.693,inactive: 0.5,inactive: 0.581,inactive: 0.542,inactive: 0.537,inactive: 0.601
FGGTVYHSPVS [PRC1_Y511],inactive: 1.04,inactive: 1.55,inactive: 0.942,inactive: 1.09,inactive: 0.82,inactive: 1.08
QISRDYGVLLE [PRDX3_Y172],inactive: 0.518,inactive: 0.783,inactive: 0.696,inactive: 0.634,inactive: 0.723,inactive: 0.681
RGRKVYLEGGF [PRIM2_Y201_D204G],inactive: 0.256,inactive: 0.342,inactive: 0.337,inactive: 0.231,inactive: 0.281,inactive: 0.292
LGPSDYFGEIA [PRKAR1A_Y323],inactive: 0.709,inactive: 0.77,inactive: 0.714,inactive: 0.717,inactive: 0.904,inactive: 0.869
RNIQQCNSFVS [PRKAR1A_Y373_Y373C],inactive: 0.664,inactive: 0.693,inactive: 0.665,inactive: 0.596,inactive: 0.687,inactive: 0.787
KGRGEYSAIKA [PRKCD_Y374_F375S],inactive: 1.11,inactive: 1.66,inactive: 0.832,inactive: 0.925,inactive: 0.974,inactive: 0.785
FDAHIYEGRVI [PRKCD_Y64],inactive: 1.02,inactive: 0.84,inactive: 0.969,inactive: 0.907,inactive: 0.9,inactive: 0.853
FDAHIYEGCVI [PRKCD_Y64_R67C],inactive: 0.826,inactive: 1.22,inactive: 0.89,inactive: 0.72,inactive: 0.768,inactive: 1.39
